Results reported in the RNAGym collection of RNA variant scans (doi:10.1073/pnas.2313332121).
This sample is rich in variants without activity.

B1: TPR 5TU (parent)
chain: GGAUCUUCUCGAUCUAACAAAAAAGACAAAUCUGCCACAAAGCUUGAGAGCAUCUUCGGAUGCAGAGGCGGCAGCCUUCGGUGGCGCGAUAGCGCCAACGUUCUCAACUAUGACACGCAAAACGCGUGCUCCGUUGAAUGGAGUUUAUCAUG

Variants of: B1
Test: polymerase ribozyme fitness, log enrichment relative to wild type (log ratio); higher = more active; in vitro selection for triplet polymerase activity
How it was run: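 Mutant libraries of both subunits of a heterodimeric triplet polymerase ribozyme were PCR-built, transcribed, and selected once in triplicate, with frozen incubation at −7 °C and capture of gel-excised extended constructs on streptavidin beads before RT-PCR. Illumina sequencing of input and output libraries was filtered to genotypes with ≥10 input reads and ≥1 read per output. Fitness is the logarithm of genotype enrichment over wild-type enrichment, using inverse-variance-weighted replicate averages. The logarithm is base 2.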

GGAUCUUCUCGAUCUAACAAAAAAGACAAAUCUGCCACAAAGCUUGAGAGCCUCUUUGGAUGCAGAGGCGGCAGCCUUCGGUGGUGCGAUAGGGCCAACGUGCUCAACUAUGACACGCAAAACGCGUGCUCCGUUGAAUGGAGUUUAUCAUG and GGAUCUUCUCGAUCUAACAAAAAAGACAAAUCUGCCACAAAGCUUGAGAGCCUCUUCGGAUGCUGAGGCGACAGCCUUCGAUGGCGCGAUAGCGCCAACGUUCUCAACUAUGACACGCAAAACGCGUGCUCCGUUGAAUGGAGUUUAUCAUG cannot be ordered by “polymerase ribozyme fitness (log ratio)” value: at most -4.2 for the first, at most -4.2 for the second.

GGAUCUUCUCGAUCUAACAAAAAAGACAAAUCUGCCACAAAGCUUGAGAGCCUCUUCGGAUGCCGAGGCGGCAGCCUUCGGUGGCGCGAUAGCGUCAACGUUCUCAACUAUGACACGCAAAACGCGUGCUCCGUUGAAUGUAGUUUAUCAUG and GGAUCUUCUCGAUCUAACAAAAAAGACAAAUCUGCCACAAAGCUUGAGAGCCUCUUUGGAUGCAGAGGCGGCAGCCUUCGGUGGCGCGAUAGCGCCAACGUGCUCAACUAUGACACGCAAAACGCGUGCUCCGUUGAAUGGAGUUGAUCAUG cannot be ordered by “polymerase ribozyme fitness (log ratio)” value: at most -4.2 for the first, at most -4.2 for the second.

GGAUCUUCUCGAUCUAACAAAAAAGACAAAUCUGCCACAAAGCUUGAGAGCCUCUUCGGAUGCAGUGGCGGCAGCCUUCGGUGGCGCCAUAGCGCCAACGUUCUCAACUAUGACACGCAAAACGCGUGCUCCGUUGAAUGGACUUUAUCAUG and GGAUCUUCUCGAUCUAACAAAAAAGACAAAUCUGCCACAAAGCUUGAGAGUAACUUCGGAUGCAGAGGCGGCAGCCUUCGGUGGCGCGAUAGCGCCAAUGUUCUCAACUAUGACACGCAAAACGCGUGCUCCGUUGAAUUGAGCUUAUCAUG cannot be ordered by “polymerase ribozyme fitness (log ratio)” value: at most -4.2 for the first, at most -4.2 for the second.

GGAUCUUCUCGAUCUAACAAAAAAGACAAAUCUGCCACAAAGCUUGAGAGCCUGAUCGGAUGCAGAGGCGGCAGCCUUCGGUGGCGCGAUCGCGCUAACGUUCUCAACUACGACAGGCAAAACGCGUGCUCCGUUGAAUGGAGUUUAUCAUG and GGAUCUUCUCGAUCUAACAAAAAAGACAAAUCUGCCACAAAGCUUGAGAGCCUUUUCGGAUGCAGAGGAGGCAGCCUUCGGUGGCGCGAUAGCGUCAACGUUCUCAACUAUGACACGCAAGACGCGCGCUCCGUUGAAUGGAGUUUAUCAUG cannot be ordered by “polymerase ribozyme fitness (log ratio)” value: at most -4.2 for the first, at most -4.2 for the second.

GGAUCUUCUCGAUCUAACAAAAAAGACAAAUCUGCCACAAAGCUUGAGAGCCUUAUCGGAUGCAGAGGCGGCAGCCUUCGGUGGCGCGAUAGCGCGAACGUUCUCAACAAUGACAAGCAAAACGCGUGCUCCGUUGAAUGGAGUUUAUCAUG and GGAUCUUCUCGAUCUAACAAAAAAGACAAAUCUGCCACAAAGCUUGAGAGUAUCAUCGGAUGCCGAGGCGGCAGCCUUCGGUGGCGCAAUAGCGCCAACGUUCUCUACUAUGACACGCAAAACGCGUGCUCCGUUGAAGGGACUUUAUCAUG cannot be ordered by “polymerase ribozyme fitness (log ratio)” value: at most -4.2 for the first, at most -4.2 for the second.

Compared with GGAUCUUCUCGAUCUAACAAAAAAGACAAAUCUGCCACAAAGCUUGAGAGCCUCUUCGGAUGCAGAGGCGGCAGCCUUCGGUGGCGCGAUAGCGCCUACGUUCUCAACUAUGACACGCAAAACGCGUGCUCCGUUGAAUGGAGUUUAUCAUG, GGAUCUUCUCGAUCUAACAAAAAAGACAAAUCUGCCACAAAGCUUGAGAGCCUGUUCGGAUGCAGACGCGGCAGCCUUCGGUGGUGCGAUAGCGCCAACGUUCUCAACUAUGAAACGCAAAACGCGUGCUCCGUUGAAUGGAGUUUAUCAUG is lower in “polymerase ribozyme fitness (log ratio)” value: -1.59 for the first, at most -4.2 for the second.

GGAUCUUCUCGAUCUAACAAAAAAGACAAAUCUGCCACAAAGCUUGAGAGCCUCUUCGGAUGCAGGGGCGGAAGCCUUCGGUGGCGCGAUAGCGCCUAAGUUCUCAACUAUGACACGCAAAACGCGUGCUCCGUUGAAUGGAGUUUAUCAUG and GGAUCUUCUCGAUCUAACAAAAAAGACAAAUCUGCCACAAAGCUUGAGAGCCUCUUCGGCAGCAGAGGCGGCAGCCUUCGGUGGCGCCAUAGCGCCAACGUUCUCAUCUAUGACACGCAAAACGCGUGCUCCGUUGGAUGGAGUUUAUCAUG cannot be ordered by “polymerase ribozyme fitness (log ratio)” value: at most -4.2 for the first, at most -4.2 for the second.

Going from GGAUCUUCUCGAUCUAACAAAAAAGACAAAUCUGCCACAAAGCUUGAGAGCCUCUUCGGAUGCAGAGGCGGCAGCCUUCGGUGGCGCGAUAGCGCCAACGUUCUCAACUGUGACACGCAAAACGCGUGCUCCGUUGAAUGGAGUUUAUCGUG to GGAUCUUCUCGAUCUAACAAAAAAGACAAAUCUGCCACAAAGCUUGAGAGUAUCAUCGGAUGCAGAGGCGGCAGCCUUCGGUGGCACGAUAGAGCCAACGUUCUCAACUAUGACACGCAAAACUCGUGCUCCGUUCAAUGGAGUUUAGCAUG, the “polymerase ribozyme fitness (log ratio)” value falls from -3.86 to at most -4.2.

GGAUCUUCUCGAUCUAACAAAAAAGACAAAUCUGCCACAAAGCUUGAGAGUAGCUUCGGAUGCAGAGGCGGCAGUCUUCGGUGGCGCGAUAGCGCCAACGUUCUCAACUAUGACACGCAAAACGCGUGCUCCGUUGAAUAAAGUUUAUCAUG and GGAUCUUCUCGAUCUAACAAAAAAGACAAAUCUGCCACAAAGCUUGAGAGUAUCAUCGGAUGCAGAGGCGGCAGACUUCGGUGGUGCGAUAGCGCCAACGAUCUCAACUAUGAUGCGCAAAACACGUGCUCCGUUGAAUGGAGUUUAUCAUG cannot be ordered by “polymerase ribozyme fitness (log ratio)” value: at most -4.2 for the first, at most -4.2 for the second.

GGAUCUUCUCGAUCUAACAAAAAAGACAAAUCUGCCACAAAGCUUGAGAGCCUCUUCGGAUGCAGAGGCGGCAGCCUUCGGUGGCGCGAUAGCGCCAACGUUCUCAACUAUGACACGCAAAACGCGUGCUCCGUUGUAUGGAGUUUAUCAUG and GGAUCUUCUCGAUCUAACAAAAAAGACAAAUCUGCCACAAAGCUUGAGAGCCUCUUCGGAUGCAGAGGCGGCAGCCUUCGGUGGCGCGAUAGCGCCAGCGUUCUCAACUAUGACACGCAAAACGCGUGCUCGGUUGAAUGGAGUUUAUCAUG cannot be ordered by “polymerase ribozyme fitness (log ratio)” value: at most -4.2 for the first, at most -4.2 for the second.

GGAUCUUCUCGAUCUAACAAAAAAGACAAAUCUGCCACAAAGCUUGAGAGUAUCAUCGGAUGCAGAGGCGGCAGCCUUCGGUAGCGCGAUAGCGCCAACGUUCUCAACUAUGACACGCAAAACGCGUGCUCCGUUGAAUGGAGUUUAUCAAG and GGAUCUUCUCGAUCUAACAAAAAAGACAAAUCUGCCACAAAGCUUGAGAGCCUAUUCGGAUGCAGGGGCGGCAGCCUUCGGUGGCGCGAUAGCGCGAACGUUCUCAACUAUGACACGCAAAACGCGUGCUCCGUUGAAUGGAGUUUAUCAUG cannot be ordered by “polymerase ribozyme fitness (log ratio)” value: at most -4.2 for the first, at most -4.2 for the second.

GGAUCUUCUCGAUCUAACAAAAAAGACAAAUCUGCCACAAAGCUUGAGAGCCUCUUCGGAUGCAGAGGCGGCAGCCUUCGGUGGCGCGAUAGCGCCAACGUUCUCGACUAUGACACGCAAAACGCGUGCUCCGUUGAACGGAGUUUAUCAUG and GGAUCUUCUCGAUCUAACAAAAAAGACAAAUCUGCCACAAAGCUUGAGAGUAUCUUCGGAUGCAGAGGCGGCAGCCUUCGGUGGCGCGAUAGCGCCAACGUGCUCAACUAUGACACGCAGAACACGUGCUCCGUUGAAUGGAGUUUAUGAUG cannot be ordered by “polymerase ribozyme fitness (log ratio)” value: at most -4.2 for the first, at most -4.2 for the second.

GGAUCUUCUCGAUCUAACAAAAAAGACAAAUCUGCCACAAAGCUUGAGAGUAUCUUCGGACGCAGAGGCGGCAGCUUUCGGUGGCGCGAUAGCCCCAACGUUCUCAACUAUGACACGCAAUACGGGUGCUCCGUUGAAUGGAGUAUAUCAUG and GGAUCUUCUCGAUCUAACAAAAAAGACAAAUCUGCCACAAAGCUUGAGAGCCUCUUCGGAUGCGGAGGCGGCAGCCUUCGGUGGUGCGAUAGCGCCAACGUUCUCAACUAUGACACGCAAAACGCGUGCUCCGUUGAAUGGAGUGUAUCAUG cannot be ordered by “polymerase ribozyme fitness (log ratio)” value: at most -4.2 for the first, at most -4.2 for the second.

First: GGAUCUUCUCGAUCUAACAAAAAAGACAAAUCUGCCACAAAGCUUGAGAGCCUCUUUGGAUGCAGAGGCGGCAGCCUUCGGUGGCGCGAUAGCGCCAACGUUCUCAACUAUGACACGCAAAACGCGUGCUCCGUUGAAUGGAGUUUAUCAUG
Second: GGAUCUUCUCGAUCUAACAAAAAAGACAAAUCUGCCACAAAGCUUGAGAGCCUCUUGGGAUGCAGAGGCGGCAGCCUUCGGUGGCGCGAUAGCGCCAACGUUCUCAACUAUGACACGCAAAACGCGUGCUCCGUUGAAUGGAGUUUAUCAUG
The “polymerase ribozyme fitness (log ratio)” value of the first is higher: -1.24 for the first, -1.79 for the second.

GGAUCUUCUCGAUCUAACAAAAAAGACAAAUCUGCCACAAAGCUUGAGAGCCUUUUCGGAUGCAGAGGCGGCAGCCUUCGGUGGCACGAUAGCGCCAACGUUCUCAACUAUGACACGCAAAACGCGUGCUGCGUUGAAUGGGGUUUAUCAUG and GGAUCUUCUCGAUCUAACAAAAAAGACAAAUCUGCCACAAAGCUUGAGAGUAUCUACGGAUGCAGAGACGGCAGCCUUCGGUGGCGCGAUAGCACAAACGCUCUCAACUAUGACACGCAAAACGCGUGCUCCGUUGAAUGGAGUUUAUCAUG cannot be ordered by “polymerase ribozyme fitness (log ratio)” value: at most -4.2 for the first, at most -4.2 for the second.

GGAUCUUCUCGAUCUAACAAAAAAGACAAAUCUGCCACAAAGCUUGAGAGCCUCUUUGGAUGCAGAGGCGGCAGUCUUCGGUGGCACGAUAGCGCCAACGUUCUCAGCUAUGACACGCAAAACGCUUGCUCCGUUGAAUGGAGUUUAUCAUG and GGAUCUUCUCGAUCUAACAAAAAAGACAAAUCUGCCACAAAGCUUGAGAGCCUCUUUGGAUGCAGAGGCGGCAGCCUUCGGUGGCGCGAUAGCGCCAACGUUCUCAACUAUGACACGCAAAACGCGUGCUCCUUUGAAUGGAGUUUAUCAUG cannot be ordered by “polymerase ribozyme fitness (log ratio)” value: at most -4.2 for the first, at most -4.2 for the second.

Going from GGAUCUUCUCGAUCUAACAAAAAAGACAAAUCUGCCACAAAGCUUGAGAGCCUCUUAGGAUGCAGAGGUGGCAGCCUUCGGUGGUGCGAUAGCGCCAACGUUCUCAACUAUGACACGCAAAACGCGUGCUCCGUUGAAUGGAGUUUAUCAUG to GGAUCUUCUCGAUCUAACAAAAAAGACAAAUCUGCCACAAAGCUUGAGAGCCUCUUUGGAUGAAGAGGCGGGAGCCAUCGGUGGAGCGAUAGCGCCAACGUUCUCAUCUAUGACACGCAAAUCGCGUGCUCCGUUCAAUGGAGUUUAACAUG, the “polymerase ribozyme fitness (log ratio)” value falls from -3.07 to at most -4.2.

GGAUCUUCUCGAUCUAACAAAAAAGACAAAUCUGCCACAAAGCUUGAGAGCCUUUUCGGAUGCAGAGGCGGCUGCCUUCGGUCGCGCGAUAGCGACAACGUUCUCAAAUAUGACACGCAAAACGCGUGCUCCGUUGCAUGGAGUUUAUCAUG and GGAUCUUCUCGAUCUAACAAAAAAGACAAAUCUGCCACAAAGCUUGAGAGCCUAUUCGGAUCCAGAGGCGGCAGCCUUCGGGAGCGAGAUAGCGCCAACGUUCUCAACUAUGACACGCAAAACGCGUGCUCCGUUGAAUGGAGUUGAUCAUG cannot be ordered by “polymerase ribozyme fitness (log ratio)” value: at most -4.2 for the first, at most -4.2 for the second.

GGAUCUUCUCGAUCUAACAAAAAAGACAAAUCUGCCACAAAGCUUGAGAGCCUCUUGGGAUGCAGAGGCGGCAGCCUUCGGUGGCGCGAUAGCACCAACUUUCUCAACUAUGACACGCAAAACGCGUGCUCCGUUGAAUGGAGUUUAACAUG and GGAUCUUCUCGAUCUAACAAAAAAGACAAAUCUGCCACAAAGCUUGAGAGUAUCAUCGGAUGCAGAGGCGGCAGCCUUCGGUGGGGCGAUAGCGCCAACGUUCUAAACUAUGACACGCAAAACGGGUGCUCCGUUGAAUGAAGUUUAUCAUG cannot be ordered by “polymerase ribozyme fitness (log ratio)” value: at most -4.2 for the first, at most -4.2 for the second.
